By IC50 is meant the dose at which the fit gives 50% viability; where the fit passes the top or lowest dose, that dose stands as a limit. For AUC the same curve is integrated over the 256-fold range of doses and scaled to a fraction; the more sensitive the line, the further below 1. For some assays here: An inferred top dose comes from the curve model; the source does not state it. For some assays here: An entry number marks a drug with two screens in the source, which often give different values.
Key:
Assay in all cases: Viability of human cancer cell lines after 72 h of drug (GDSC screen)
Docetaxel = compound: CC(=O)O[C@@]12CO[C@@H]1C[C@H](O)[C@@]1(C)C(=O)[C@H](O)C3=C(C)[C@@H](OC(=O)[C@H](O)[C@@H](NC(=O)OC(C)(C)C)c4ccccc4)C[C@@](O)([C@@H](OC(=O)c4ccccc4)[C@H]21)C3(C)C [Docetaxel]; conditions: top dose 0.0125 µM
Protocol: (§1)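 Human cancer cell lines in 384-well plates, medium with 10% serum, drug for 72 h over a 256-fold dose range (nine 2-fold or five 4-fold steps up to the top dose). Adherent lines were fixed and stained with the nucleic acid dye Syto60, suspension lines read with resazurin; signal relative to control wells, capped at 0 and 100%. One two-parameter sigmoid per drug and line, fitted in a mixed model over all curves with the slope shared within a line.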

YM155 = compound: COCC[n+]1c2c(n(Cc3cnccn3)c1C)C(=O)c1ccccc1C2=O [YM155]; conditions: top dose 5.12 µM
Protocol: as §1

Belinostat = compound: O=C(/C=C/c1cccc(S(=O)(=O)Nc2ccccc2)c1)NO [Belinostat]; conditions: top dose 20 µM; top dose inferred
Protocol: as §1

OSI-906 = compound: C[C@]1(O)C[C@@H](c2nc(-c3ccc4ccc(-c5ccccc5)nc4c3)c3c(N)nccn32)C1 [OSI-906]; conditions: top dose 2.56 µM; top dose inferred
Protocol: as §1

SB-715992 = compound: Cc1ccc(C(=O)N(CCCN)[C@@H](c2nc3cc(Cl)ccc3c(=O)n2Cc2ccccc2)C(C)C)cc1 [SB-715992]; conditions: top dose 0.128 µM; top dose inferred
Protocol: as §1

FTI-277 = compound: COC(=O)[C@H](CCSC)NC(=O)c1ccc(NC[C@@H](N)CS)cc1-c1ccccc1 [FTI-277]; conditions: top dose 1.024 µM; top dose inferred
Protocol: as §1

JQ1 = compound: Cc1sc2c(c1C)C(c1ccc(Cl)cc1)=N[C@@H](CC(=O)OC(C)(C)C)c1nnc(C)n1-2 [JQ1]
Protocol: as §1

NSC-207895 = compound: CN1CCN(c2ccc([N+](=O)[O-])c3no[n+]([O-])c23)CC1 [NSC-207895]; conditions: top dose 20 µM; top dose inferred
Protocol: as §1

JNJ-26854165 = compound: c1ccc2c(CCNc3ccc(Nc4ccncc4)cc3)c[nH]c2c1 [JNJ-26854165]; conditions: top dose 10 µM
Protocol: as §1

[1] = top dose 2.56 µM, screen: GDSC drug entry 163
[2] = top dose 1 µM, screen: GDSC drug entry 1218, top dose inferred

Row | Cell Line | AUC (Docetaxel) | IC50 (Docetaxel) | AUC (YM155) | IC50 (YM155) | AUC (Belinostat) | IC50 (Belinostat) | AUC (OSI-906) | IC50 (OSI-906) | AUC (SB-715992) | IC50 (SB-715992) | AUC (FTI-277) | IC50 (FTI-277) | AUC (JQ1; [1]) | IC50 (JQ1; [1]) | AUC (NSC-207895) | IC50 (NSC-207895) | AUC (JNJ-26854165) | IC50 (JNJ-26854165) | AUC (JQ1; [2]) | IC50 (JQ1; [2])
1 | A2058 (melanoma, adherent) | 0.495 | 0.76 nM | 0.151 | 31.6 nM | 0.8 | 8490 nM | 0.967 | > 2560 nM | 0.629 | 17.4 nM | 0.989 | > 1020 nM | 0.877 | 2100 nM | 0.949 | > 20000 nM | 0.931 | > 10000 nM | – | –
2 | ABC-1 (lung adenocarcinoma, adherent) | 0.885 | > 12.5 nM | 0.035 | < 20 nM | 0.508 | 1320 nM | 0.725 | 809 nM | 0.811 | 85.9 nM | 0.951 | > 1020 nM | 0.737 | 888 nM | 0.837 | 17500 nM | 0.877 | > 10000 nM | 0.979 | > 1000 nM
3 | ACHN (kidney, adherent) | 0.9 | > 12.5 nM | 0.188 | 31.6 nM | 0.543 | 1660 nM | 0.983 | > 2560 nM | 0.948 | > 128 nM | 0.954 | > 1020 nM | 0.748 | 926 nM | 0.945 | > 20000 nM | 0.844 | 8690 nM | 0.977 | > 1000 nM
4 | CAKI-1 (kidney, adherent) | 0.865 | > 12.5 nM | 0.758 | 2660 nM | 0.419 | 672 nM | 0.88 | > 2560 nM | 0.91 | > 128 nM | 0.932 | > 1020 nM | 0.467 | 125 nM | 0.971 | > 20000 nM | 0.822 | > 10000 nM | 0.956 | > 1000 nM
5 | DMS-53 (small cell lung carcinoma, adherent) | 0.988 | > 12.5 nM | 0.808 | 2890 nM | 0.815 | 12000 nM | 0.949 | > 2560 nM | 0.988 | > 128 nM | 0.988 | > 1020 nM | – | – | 0.988 | > 20000 nM | 0.951 | > 10000 nM | – | –
6 | Daoy (medulloblastoma, adherent) | 0.54 | 0.993 nM | 0.021 | < 20 nM | 0.143 | 113 nM | 0.935 | > 2560 nM | 0.622 | 16.8 nM | 0.968 | > 1020 nM | 0.63 | 351 nM | 0.949 | > 20000 nM | 0.848 | 6430 nM | 0.984 | > 1000 nM
7 | EFM-19 (breast, adherent) | 0.568 | 1.32 nM | 0.091 | < 20 nM | 0.491 | 1170 nM | 0.901 | > 2560 nM | 0.941 | > 128 nM | 0.91 | > 1020 nM | 0.702 | 806 nM | 0.904 | > 20000 nM | 0.945 | > 10000 nM | 0.964 | > 1000 nM
8 | G-MEL (melanoma, adherent) | 0.653 | 2.07 nM | – | – | – | – | 0.924 | > 2560 nM | 0.888 | > 128 nM | 0.966 | > 1020 nM | 0.945 | > 2560 nM | 0.884 | > 20000 nM | – | – | 0.971 | > 1000 nM
9 | H2722 (mesothelioma, adherent) | 0.956 | > 12.5 nM | 0.179 | 27.5 nM | 0.462 | 968 nM | 0.962 | > 2560 nM | 0.984 | > 128 nM | 0.945 | > 1020 nM | 0.739 | 892 nM | 0.968 | > 20000 nM | 0.911 | > 10000 nM | 0.982 | > 1000 nM
10 | HCC70 (breast, adherent) | 0.671 | 2.31 nM | 0.488 | 297 nM | 0.356 | 504 nM | 0.988 | > 2560 nM | 0.857 | 101 nM | 0.985 | > 1020 nM | 0.662 | 448 nM | 0.931 | > 20000 nM | 0.909 | > 10000 nM | 0.986 | > 1000 nM
11 | HMV-II (melanoma, adherent) | 0.911 | > 12.5 nM | 0.115 | < 20 nM | 0.484 | 1120 nM | 0.535 | 204 nM | 0.935 | > 128 nM | 0.918 | > 1020 nM | 0.787 | 1390 nM | 0.927 | > 20000 nM | 0.882 | > 10000 nM | 0.881 | > 1000 nM
12 | HSC-4 (head and neck, adherent) | 0.401 | 0.382 nM | 0.041 | < 20 nM | 0.627 | 3140 nM | 0.979 | > 2560 nM | 0.968 | > 128 nM | 0.977 | > 1020 nM | 0.901 | > 2560 nM | 0.87 | > 20000 nM | 0.839 | > 10000 nM | 0.973 | > 1000 nM
13 | JHH-6 (liver, adherent) | 0.678 | 2.48 nM | – | – | 0.565 | 1890 nM | 0.895 | > 2560 nM | 0.973 | > 128 nM | 0.911 | > 1020 nM | 0.667 | 471 nM | 0.9 | > 20000 nM | 0.837 | 6850 nM | 0.977 | > 1000 nM
14 | M14 (melanoma, adherent) | 0.671 | 2.42 nM | 0.104 | < 20 nM | 0.592 | 2270 nM | 0.97 | > 2560 nM | 0.937 | > 128 nM | 0.986 | > 1020 nM | 0.604 | 315 nM | 0.963 | > 20000 nM | 0.949 | > 10000 nM | 0.985 | > 1000 nM

Reference: the supplement of paper PMC4967469
